# Experimental data from article PMC4336329 (PLoS ONE, 2015).
# The campaign covered roughly 310,000 compounds. About 2,200 (0.71%) showed an effect of 50% or more. Effects have a minus sign here. The list shows a part of the results.
# Molecular target: human ether-à-go-go-related gene (hERG) potassium channel (human, UniProt Q12809)
# Experiment: primary screen, population patch clamp on CHO cells stably expressing hERG
# Chain of human ether-à-go-go-related gene (hERG) potassium channel (Q12809 whole entry, looked up): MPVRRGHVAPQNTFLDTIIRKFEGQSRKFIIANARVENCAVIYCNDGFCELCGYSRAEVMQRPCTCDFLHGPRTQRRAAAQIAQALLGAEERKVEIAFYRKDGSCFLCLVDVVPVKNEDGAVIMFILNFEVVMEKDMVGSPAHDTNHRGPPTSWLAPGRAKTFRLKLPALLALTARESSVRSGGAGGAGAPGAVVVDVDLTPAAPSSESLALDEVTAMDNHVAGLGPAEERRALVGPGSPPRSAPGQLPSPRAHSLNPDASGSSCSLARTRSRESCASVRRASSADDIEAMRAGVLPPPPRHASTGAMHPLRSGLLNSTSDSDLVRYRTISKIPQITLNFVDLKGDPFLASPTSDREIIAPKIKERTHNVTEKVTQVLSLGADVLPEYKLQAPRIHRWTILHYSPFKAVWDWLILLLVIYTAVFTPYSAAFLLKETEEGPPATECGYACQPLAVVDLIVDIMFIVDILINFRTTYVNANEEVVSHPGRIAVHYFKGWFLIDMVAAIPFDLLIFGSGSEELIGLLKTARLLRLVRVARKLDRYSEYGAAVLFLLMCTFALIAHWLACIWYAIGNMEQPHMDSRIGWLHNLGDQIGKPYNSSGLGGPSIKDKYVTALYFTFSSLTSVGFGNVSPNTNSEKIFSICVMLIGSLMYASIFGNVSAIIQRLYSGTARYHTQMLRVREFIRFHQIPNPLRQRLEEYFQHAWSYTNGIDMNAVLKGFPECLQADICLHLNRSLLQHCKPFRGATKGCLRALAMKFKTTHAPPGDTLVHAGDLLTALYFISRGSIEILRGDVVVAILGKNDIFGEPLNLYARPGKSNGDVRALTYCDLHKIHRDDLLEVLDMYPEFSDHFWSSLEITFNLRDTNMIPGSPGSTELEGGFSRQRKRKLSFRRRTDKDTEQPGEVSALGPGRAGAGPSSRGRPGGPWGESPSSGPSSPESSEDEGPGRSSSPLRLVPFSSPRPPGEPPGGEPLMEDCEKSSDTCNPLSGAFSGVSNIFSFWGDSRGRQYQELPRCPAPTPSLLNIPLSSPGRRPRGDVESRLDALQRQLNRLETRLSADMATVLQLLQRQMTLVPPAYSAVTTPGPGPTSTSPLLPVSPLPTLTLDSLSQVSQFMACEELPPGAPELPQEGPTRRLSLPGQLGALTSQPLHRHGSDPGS
row,SMILES,"hERG current change (%, negative = inhibition) at 1uM [%]"
1,O=C(O)C(c1ccccc1)c1ccccc1,12.3
2,CCOC(=O)C1(Cc2cccc(OC)c2)CCN(Cc2cccnc2)CC1,11.5
3,C/C(=N\NC(=S)NCc1ccccc1)c1ccc2c(c1)OCCO2,-6.28
4,O=C(N/N=C/c1ccncc1)c1cc2ccccc2cc1O,4.63
5,COc1ccc(C(=O)Nn2c(SCc3ccc([N+](=O)[O-])cc3)nc3ccccc3c2=O)cc1,7.24
6,Cc1cccc(C)c1NC(=O)CSc1nnc(NC(=O)C2CC2)s1,20.8
7,Cc1nc2c(c(=O)n1CCC(C)C)c1nc3ccccc3nc1n2Cc1ccc2c(c1)OCO2,2.46
8,Br.CCCCCCCCCn1ccc(=N)cc1,-20.1
9,CSc1ccc(-c2nnn(Cc3ccc(C)cc3)n2)cc1,16.5
10,COc1ccc(C(=O)COC(=O)[C@H](C)Nc2ccc(C(F)(F)F)cc2[N+](=O)[O-])c(OC)c1,2.67
11,C=CCN1C(=O)/C(=C\c2cc(Br)c(OCc3ccccn3)c(OC)c2)SC1=S,11.6
12,c1ccc2ccccc2c1,16
13,Cc1ccc(NC(=O)c2ccc(F)cc2)nc1,13.4
14,N#Cc1c(-c2cccnc2)c2c([nH]c1=O)-c1ccccc1OC2,11.5
15,CCCCNC(=O)N1CCc2[nH]c3ccccc3c2C1,11.1
16,CCN(CC)CCOc1c(Br)ccc2c1sc1nc3n(c(=O)c12)CCC3,-1.07
17,CC1CCCCN1CC(O)COCc1ccc(Cl)cc1 (centres unmarked),0.875
18,C#CCn1c(S(=O)(=O)Cc2ccccc2Cl)nc(-c2ccccc2)c1-c1ccccc1,0.448
19,OCCC1CN(C2CCN(c3ccccc3F)CC2)CCN1Cc1ccccc1 (centres unmarked),-1.66

row,SMILES,"hERG current change (%, negative = inhibition) at 1uM [%]"
1,COc1ccc(CN(C)C(=O)c2ccccc2OCc2c(C)noc2C)c(OC)c1,5.14
2,CCOC(=O)/C=C1\CN(Cc2ccc(OC)cc2)S(=O)(=O)c2ccccc21,12.7
3,Cc1cc(C)cc(NC(=O)C2CCCN(S(=O)(=O)c3cnc[nH]3)C2)c1 (centres unmarked),0.609
4,O=C([O-])/C=C/C(O)c1ccc(Cl)cc1.[Na+] (centres unmarked),6.54
5,Cc1ccc(-c2nc(CC(=O)Nc3cccc(S(=O)(=O)NC4=NCCC4)c3)cs2)cc1,13
6,CC1(C)c2[nH]c3ccccc3c2C[C@@H]2C(=O)N(Cc3ccc(F)cc3)C(=O)N21,7.65
7,Cc1cc(C#N)c2ccccc2n1,12.6
8,Cc1cc(C)nc(NC(=O)c2ccc(C)o2)n1,15.3
9,COc1cc(C(=O)N2CCCCCCC2)ccc1OC1CCN(C(C)=O)CC1,5.09
10,O=C1NC2NC(=O)N([N+](=O)[O-])C2N1 (centres unmarked),15.4
11,CCN(CC)c1ccc(/C=C/c2cc(-c3ccccc3)c3ccccc3n2)cc1,5.82
12,Cc1ccc(NC(=O)NCCc2ccc(S(N)(=O)=O)cc2)cc1,14.5
13,COc1cc(CCC(=O)N2CCN(c3ccc(N4CCOCC4)nn3)CC2)cc(OC)c1OC,0.489
14,CCCCOC(=O)CSc1nc(N)c(C#N)c(-c2ccc(OCC)cc2)c1C#N,14
15,CCOC(=O)Cn1nnc(-c2ccc(OCC(C)C)cc2)n1,10.5
16,CCOc1cc(CNc2ccc3c(c2)OCCO3)cc(Br)c1OCC(N)=O,1.92
17,CCc1nnc(NC(=O)c2cc(-c3ccccc3)nn2-c2ccccc2)s1,7.49
18,N#CC1=C2SCN(Cc3ccco3)CN2C(=O)CC1c1ccc(Cl)cc1 (centres unmarked),14.5
19,O=C(O)c1ccc2c(c1Sc1ccccc1)C(=O)c1ccccc1C2=O,12

row,SMILES,"hERG current change (%, negative = inhibition) at 1uM [%]"
1,CCc1ccc(NC(=O)CCn2nc(C)c(S(=O)(=O)N3CCCCC3)c2C)cc1,4.67
2,CCc1ccccc1NC(=O)N1C[C@H]2C[C@@H](C1)c1cccc(=O)n1C2,8.75
3,COc1cc2c(cc1OC)CN(C(=O)c1sccc1C)CC2,8.88
4,O=C(CSc1nc(-c2ccccc2)nc2c1CCCC2)N1CCOCC1,0.955
5,O=C(NCCc1ccccc1Cl)c1ccc2nc3ccccc3c(=O)n2c1,10.5
6,O=C(Nc1nnc(C2=COCCO2)o1)c1ccc(F)cc1,13.8
7,CCCN1CCN(CCNC(=O)Nc2cc(C)ccc2C)CC1,-11.4
8,Nc1nonc1-n1nnc(C(=O)N/N=C/c2ccc(OCc3ccccc3)cc2)c1COc1ccc(F)cc1,3.94
9,COc1ccc(C)c2sc(N(CCCN(C)C)C(=O)c3ccc(S(=O)(=O)N(C)C)cc3)nc12.Cl,-17.9
10,CN(CC(=O)Nc1cccc(F)c1)CC(=O)Nc1cccc([N+](=O)[O-])c1,-10.4
11,C=C1c2ccccc2NC(=O)N1c1ccc(OC)cc1,8.84
12,COc1ccc(C2CC(C(F)(F)F)n3nc(C(=O)NCc4c(C)nn(C)c4C)c(Cl)c3N2)cc1 (centres unmarked),2.89
13,COc1ccc(CC2C(=O)OC(C)(C)OC2=O)cc1,3.77
14,Cc1ccc(NC(=O)CN(C)C(=O)c2ccc(OCc3cn4ccccc4n3)cc2)cc1,6.52
15,COc1cc2c(cc1OC)C(CSc1ccccc1C(=O)O)=NC(C)(C)C2,15.2
16,COC(=O)c1ccc2nc(C)cc(Nc3ccc(N(C)C)cc3)c2c1.Cl,-23.5
17,N#Cc1c(-c2ccc(Cl)cc2)cc(-c2cccs2)nc1SCC(=O)O,11.2
18,CC1CCc2sc(C(=O)NN=C3CCC(c4ccccc4)CC3)cc2C1 (centres unmarked),1.71
